Results published in PubChem BioAssay AID504332 (National Center for Advancing Translational Sciences (NCATS), 2011).
About 31,000 (8.9%) of roughly 350,000 compounds were called active. This list was built around the results that the source calls inconclusive (neither active nor inactive); the mix of calls is not that of the screen. Calls follow the shape of the dose curve; as a rule, active = well fitted inhibition curve with a large enough effect; inconclusive = small, poorly fitted or top-dose-only effect; inactive = no such curve, though single readings can be large or run the other way. A potency beside an inconclusive call is a rough fit, not a confirmed value.

Target: Histone-lysine N-methyltransferase EHMT2 (Homo sapiens) (UniProt Q96KQ7)
UniProt Q96KQ7, sequence (Q96KQ7 whole entry, looked up): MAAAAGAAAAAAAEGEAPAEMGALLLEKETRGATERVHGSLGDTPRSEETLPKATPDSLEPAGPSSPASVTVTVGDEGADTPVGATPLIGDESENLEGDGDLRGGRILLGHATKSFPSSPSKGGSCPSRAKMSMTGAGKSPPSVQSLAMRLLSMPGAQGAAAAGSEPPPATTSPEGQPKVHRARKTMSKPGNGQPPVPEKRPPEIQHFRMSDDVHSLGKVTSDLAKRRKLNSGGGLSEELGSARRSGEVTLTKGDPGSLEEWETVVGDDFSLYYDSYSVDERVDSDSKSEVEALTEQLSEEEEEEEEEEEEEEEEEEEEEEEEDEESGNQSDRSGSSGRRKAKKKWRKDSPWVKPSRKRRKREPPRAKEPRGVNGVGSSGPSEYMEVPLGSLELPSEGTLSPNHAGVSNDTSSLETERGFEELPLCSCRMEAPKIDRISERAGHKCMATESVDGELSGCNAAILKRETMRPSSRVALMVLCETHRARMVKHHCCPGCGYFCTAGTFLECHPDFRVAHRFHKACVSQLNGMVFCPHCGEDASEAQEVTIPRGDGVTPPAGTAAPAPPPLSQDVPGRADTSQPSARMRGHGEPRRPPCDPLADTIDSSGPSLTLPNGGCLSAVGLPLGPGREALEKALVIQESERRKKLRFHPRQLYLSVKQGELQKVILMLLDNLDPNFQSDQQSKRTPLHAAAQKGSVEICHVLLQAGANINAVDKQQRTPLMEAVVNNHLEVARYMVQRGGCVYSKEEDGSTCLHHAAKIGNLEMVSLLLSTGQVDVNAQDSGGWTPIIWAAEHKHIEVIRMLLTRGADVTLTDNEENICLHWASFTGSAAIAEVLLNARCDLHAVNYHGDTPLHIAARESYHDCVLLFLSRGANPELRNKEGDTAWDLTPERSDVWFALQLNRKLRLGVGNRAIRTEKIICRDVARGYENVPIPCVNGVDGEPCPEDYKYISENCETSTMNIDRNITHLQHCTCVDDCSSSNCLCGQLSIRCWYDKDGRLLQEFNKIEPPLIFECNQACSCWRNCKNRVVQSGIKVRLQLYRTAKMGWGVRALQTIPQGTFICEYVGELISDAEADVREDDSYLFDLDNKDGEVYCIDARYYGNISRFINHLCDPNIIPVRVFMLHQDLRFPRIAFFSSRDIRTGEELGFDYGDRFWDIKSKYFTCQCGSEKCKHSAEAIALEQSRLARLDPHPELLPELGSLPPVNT
Assay: qHTS Assay for Inhibitors of Histone Lysine Methyltransferase G9a; also: nearly all actives have a fitted effect of over 75% in size
Conditions: G9a H3K9 monomethylation, AlphaScreen, 2 h; activity, negative = inhibition: at 59 µM (top of the series) unless noted
How it was run: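 Quantitative HTS format: methyltransferase activity on a biotin-tagged H3K9 peptide is measured by AlphaScreen, using a rabbit anti-monomethyl-H3K9 antibody with streptavidin donor and anti-IgG acceptor beads. Final levels are 20 nM enzyme, 500 nM peptide, 20 uM SAM; 2 h RT.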
% is scaled to controls: 0 for no effect and ±100 for the full control effect; potency is read from the fitted curve at half-maximal effect; tags tell the direction and shape of the fitted curve.

Structure (SMILES) | Potency | activity, negative = inhibition
O=C1CC(N(O)c2ccccc2)C(=O)N1c1cc(Cl)cc(Cl)c1 (configuration not stated) | inconclusive: 44.7 µM [inhibitor, partial curve, poor fit] | 
Cc1cc(CN(C)C(=O)CC2C(=O)NCCN2Cc2ccc(-c3ccccc3)cc2)on1 (configuration not stated) | active: 39.8 µM | 
Cc1cc(C)c(OCC(=O)Nc2cc(C(=O)O)cc(C(=O)O)c2)cc1C | inactive | 
Cc1ccc(CSc2nnc(SCC(=O)N/N=C/c3c[nH]c4ccccc34)s2)cc1 | inconclusive: 39.8 µM [inhibitor, single point] | 
CN1C(=O)CC(n2c(CO)nc3ccccc32)C1=O (configuration not stated) | inconclusive: 79.4 µM [inhibitor, partial curve, poor fit] | 
O=C(NNC(=S)NC(=O)c1ccccc1[N+](=O)[O-])c1ccccc1O | inactive | 
Cc1occc1C(=O)NC1CCCc2ccccc21 (configuration not stated) | inconclusive: 14.1 µM [inhibitor, partial curve, poor fit] | 
CCc1nccn1S(=O)(=O)c1ccc(OC)c(C)c1C | inconclusive: 89.1 µM [inhibitor, single point] | 
COc1ccccc1CN1CC(C(=O)NCCc2ccc(Cl)cc2)CC1=O (configuration not stated) | inactive | 
CCOc1cccc(-c2nn3c(-c4ccco4)nnc3s2)c1 | inconclusive: 20 µM [inhibitor, single point] | 
Cc1ccc(CNC(=O)c2ccc3c(c2)NC(=O)C(CS(=O)(=O)Cc2cccc(C)c2)N3)cc1 (configuration not stated) | active: 14.1 µM | 
Cc1sc(NC(=O)c2ccccc2)c(C#N)c1-c1ccccc1 | inconclusive: 35.5 µM [inhibitor, single point] | 
O=c1ccc(=O)n(-c2ccccc2)[nH]1 | active: 14.1 µM | 
O=C(Nc1cccc(F)c1)C1CCN(S(=O)(=O)c2cccc3nonc23)CC1 | inconclusive: 89.1 µM [inhibitor, single point] | 
CCOC(=O)c1cccc(-n2c(C)cc(C=O)c2C)c1 | inactive | 
Cc1cn2c(=O)cc(COC(=O)COc3ccc(C)c(C)c3)nc2s1 | inconclusive: 4.47 µM [inhibitor, single point] | 
C=CCN1C(=O)/C(=C2/Sc3ccccc3N2C)SC1=Nc1c(C)n[nH]c1C | inconclusive: 28.2 µM [inhibitor, partial curve, poor fit] | 
Cc1cccc(C(=O)NC(=S)NNC(=O)c2cccs2)c1 | active: 7.08 µM | 
CCOC(=O)c1cnc2ccc(OC)cc2c1NCCN1CCOCC1 | inconclusive: 31.6 µM [inhibitor, partial curve, poor fit] | 
CC(C)(C)C(=O)[C@@H]1[C@@H]2C(=O)N(Cc3ccccc3)C(=O)[C@@H]2[C@H]2c3ccccc3C=CN12 | active: 10 µM | 
Cc1cc(C)cc(C(=O)NC2C(=O)N3C(C(=O)O)=C(CSc4nnc(C)s4)CSC23)c1 (configuration not stated) | inconclusive: 39.8 µM [inhibitor, partial curve, poor fit] | 
CN1CCN(S(=O)(=O)c2ccc(NC(=S)NC(=O)c3ccc(Cl)cc3)cc2)CC1 | active: 17.8 µM | 
COc1ccc(N(C(=O)CSCC(=O)Nc2cc(C)on2)C(C(=O)NC2CCCCC2)c2ccc(O)c(O)c2)cc1 (configuration not stated) | inconclusive: 25.1 µM [inhibitor, single point] | 
O=Nc1c(O)n(Cc2ccc(Cl)cc2Cl)c2ccccc12 | inconclusive: 20 µM [inhibitor, single point] | 

Structure (SMILES) | Potency | activity, negative = inhibition
CCN(CC)S(=O)(=O)c1ccc(C(=O)NC(=S)N(CCC#N)Cc2cccnc2)cc1 | active: 12.6 µM | 
O=C1/C(=C/N(C(=O)c2ccco2)c2ccc(Br)cc2)Sc2ccccc21 | active: 44.7 µM | 
CO/N=C1\CCCc2c(C(=O)NN)sc(SC)c21 | inactive | 
CCc1cccc(OCCCCNCCCOC)c1 | active: 12.6 µM | 
Cn1c(CNC(=O)CSc2nc(-c3ccccc3F)nc3cc(=O)[nH]n23)nc2ccccc21 | inactive | 
CCN(CCCNC(=O)CNC(=O)c1nn(-c2ccc(OC)c(OC)c2)c(=O)c2ccccc12)c1ccccc1 | inconclusive: 89.1 µM [inhibitor, single point] | 
NC(=O)CSC1=Nc2ccccc2C2=NC(CCC(=O)NCc3ccc(F)cc3)C(=O)N12 (configuration not stated) | inconclusive: 35.5 µM [inhibitor, single point] | 
O=C(NC1CCN(C(=O)C2CCCCC2)CC1)c1ccccc1 | inactive | 
CC1(c2nnc(Cc3ccccc3)o2)CC(c2ccc([N+](=O)[O-])cc2)=NO1 (configuration not stated) |  | inconclusive: -98% [inhibitor]
COc1ccc(CCNC(=O)Cn2nnc(-c3cccs3)n2)cc1OC | inactive | 
O=C(NC(=S)Nc1ccccc1N1CCCCC1)c1ccco1 | inconclusive: 31.6 µM [inhibitor, single point] | 
COc1ccc2c(c1)c(=O)c(C(=O)c1ccc(F)cc1)cn2CC(=O)Nc1ccc2c(c1)OCCO2 | inactive | 
CN(C)c1ccc(/C=C2\CCCc3c2nc2ccccc2c3C(=O)O)cc1 | active: 39.8 µM | 
Cc1ccc(S(=O)(=O)N2CCC(C(=O)N3CCc4ccccc43)CC2)cc1C | inconclusive: 3.55 µM [inhibitor, full curve, poor fit] | 
Cc1cc(C)c2cc(CN(CCO)C(c3nnnn3Cc3ccc(F)cc3)C(C)C)c(=O)[nH]c2c1 (configuration not stated) |  | inconclusive: -80.9% [inhibitor]
O=[N+]([O-])c1ccccc1-c1nc(-c2ccc(Br)o2)no1 | inconclusive: 39.8 µM [inhibitor, single point] | 
S=c1[nH]nc(COc2ccccc2)n1/N=C/c1ccccc1Br | active: 8.91 µM | 
CCCCNC(=S)Nc1ccc([N+](=O)[O-])cc1 | inactive | 
Cc1cc2nn(-c3ccc(F)cc3)nc2cc1NC(=O)c1ccc(C(C)(C)C)cc1 | inactive | 
CCn1c2ccccc2c2cc(NC(=O)COC(=O)c3cc(S(N)(=O)=O)c(Cl)cc3Cl)ccc21 | inconclusive: 44.7 µM [inhibitor, partial curve] | 
CN1CCN(CC(=O)Nc2cc(S(=O)(=O)N3CCOCC3)ccc2Cl)CC1 |  | inactive: -0.105% [at 0.501 µM]
COC(=O)C1=C(C)NC(=O)/C1=C\c1cccs1 | inactive | 
CCOC(=O)C1=C(C)N=C2c3ccccc3C(=O)C2C1c1ccc(C)cc1 (configuration not stated) | inconclusive: 39.8 µM [inhibitor, single point] | 
O=C(Cn1cc2c(n1)CCCCC2)NCCN1CCOCC1 | inconclusive: 70.8 µM [inhibitor, single point] | 

Structure (SMILES) | Potency | activity, negative = inhibition
CCC(C)n1c(SCC(=O)Nc2ccc3[nH]c(=O)[nH]c3c2)nc2ccccc2c1=O (configuration not stated) | inconclusive: 39.8 µM [inhibitor, partial curve, poor fit] | 
COc1cccc(CNC(=O)Nc2cn(CC(C)C)c(=O)c3ccccc23)c1 | inconclusive: 25.1 µM [inhibitor, partial curve, poor fit] | 
CN(C(=O)COc1ccccc1)c1nnc(C23CC4CC(CC(C4)C2)C3)s1 | active: 14.1 µM | 
CC(=O)N1CCC(N(CCCOC(C)C)S(=O)(=O)c2ccc([N+](=O)[O-])cc2)CC1 | inconclusive: 89.1 µM [inhibitor, single point] | 
CC(C)N1C(=O)CC(Nc2ccc(N3CCOCC3)cc2)C1=O (configuration not stated) | inconclusive: 15.8 µM [inhibitor, partial curve, poor fit] | 
COC(=O)[C@H](Cc1ccccc1)NC(=O)[C@@]1(C)C[C@@H]1[C@@H](NC(=O)OCc1ccccc1)c1ccccc1 | inconclusive: 89.1 µM [inhibitor, single point] | 
COCCOC(=O)c1[nH]c2c(c1C)C(=O)CC(c1ccc(N(C)C)cc1)C2 (configuration not stated) |  | inconclusive: -69.4% [inhibitor]
COc1ccc(OCc2ccc(-c3nc(C#N)c(NCc4ccc(F)cc4)o3)o2)cc1 | active: 3.98 µM | 
COc1cccc(OCc2cc(C(=O)N3CCN(C(=O)c4ccco4)CC3)no2)c1 | inconclusive: 70.8 µM [inhibitor, single point] | 
Cc1nnc2c3ccccc3nc(Nc3ccc(F)cc3Cl)n12 | inconclusive: 6.31 µM [inhibitor, single point] | 
CCOc1ccc(-n2c(-c3ccc(Br)cc3)cc3c2CC(C)(C)CC3=O)cc1 | inconclusive: 12.6 µM [inhibitor, partial curve, poor fit] | 
CCOC(=O)c1cc(-c2ccc(F)cc2)n(CCC(=O)Nc2nc3cc(C)c(C)cc3s2)c1C | inactive | 
O=c1c(-c2ccccc2)nc2cnc(Oc3ccccc3)nc2n1Cc1cccs1 |  | inactive: 1.31% [at 12.7 µM]
Cc1ccc(N2CCN(/N=C/c3cccs3)CC2)cc1 | inactive | 
COCCOc1cc(NC(=O)CS(=O)CC(=O)N(C)C)c(Cl)cc1Cl (configuration not stated) | inactive | 
CCN(CCCNC(=O)C1CCN(S(=O)(=O)c2c(C)[nH]c(=O)[nH]c2=O)CC1)c1cccc(C)c1 | active: 50.1 µM | 
COc1cccc2cc(C(=O)Nc3ccccc3C)/c(=N/O)oc12 | inconclusive: 89.1 µM [inhibitor, single point] | 
NNC(=S)Nc1ccc(S(=O)(=O)N2CCCCC2)cc1 | inactive | 
N#CCSc1nn(-c2ccc(F)cc2)c(=S)s1 | inactive | 
Cc1ccccc1COCCN1CCN(S(=O)(=O)c2ccccc2)CCC1=O |  | inconclusive: -79.6% [inhibitor]
Cc1cccc(N(C)S(=O)(=O)c2nnc(NC(=O)C(C)(C)C)s2)c1 | inactive | 
COc1ccc(CCNC(=O)c2cc(-c3ccccc3O)n[nH]2)cc1OC |  | inactive: -38.3% [at 12.7 µM]
CCOC(=O)COc1ccccc1/C=C\[N+](=O)[O-] | active: 3.55 µM | 
Cc1ccc(S(=O)(=O)c2nc(-c3ccccc3)oc2N2CCCC2)cc1 | active: 1.26 µM | 
